# Source: paper PMC6919601, “Identification of Plasmodium dipeptidyl aminopeptidase allosteric inhibitors by high throughput screening” (PLoS ONE, 2019)
# The campaign covered roughly 110,000 compounds. About 230 (0.21%) showed an effect of 50% or more. The list shows a part of the results.
# Biological target: DPAP1 (Plasmodium falciparum, UniProt Q8IIJ9)
# Experiment: primary screen, percent inhibition; read by cleavage of a fluorogenic dipeptide substrate; higher = more effect of the substance
# Set-up: species or system P. falciparum D10 trophozoite lysates; single well
# 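Also: 30 min substrate incubation versus DMSO and 10 µM JCP410 controls.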
# Sequence of DPAP1 (Q8IIJ9 whole entry, looked up): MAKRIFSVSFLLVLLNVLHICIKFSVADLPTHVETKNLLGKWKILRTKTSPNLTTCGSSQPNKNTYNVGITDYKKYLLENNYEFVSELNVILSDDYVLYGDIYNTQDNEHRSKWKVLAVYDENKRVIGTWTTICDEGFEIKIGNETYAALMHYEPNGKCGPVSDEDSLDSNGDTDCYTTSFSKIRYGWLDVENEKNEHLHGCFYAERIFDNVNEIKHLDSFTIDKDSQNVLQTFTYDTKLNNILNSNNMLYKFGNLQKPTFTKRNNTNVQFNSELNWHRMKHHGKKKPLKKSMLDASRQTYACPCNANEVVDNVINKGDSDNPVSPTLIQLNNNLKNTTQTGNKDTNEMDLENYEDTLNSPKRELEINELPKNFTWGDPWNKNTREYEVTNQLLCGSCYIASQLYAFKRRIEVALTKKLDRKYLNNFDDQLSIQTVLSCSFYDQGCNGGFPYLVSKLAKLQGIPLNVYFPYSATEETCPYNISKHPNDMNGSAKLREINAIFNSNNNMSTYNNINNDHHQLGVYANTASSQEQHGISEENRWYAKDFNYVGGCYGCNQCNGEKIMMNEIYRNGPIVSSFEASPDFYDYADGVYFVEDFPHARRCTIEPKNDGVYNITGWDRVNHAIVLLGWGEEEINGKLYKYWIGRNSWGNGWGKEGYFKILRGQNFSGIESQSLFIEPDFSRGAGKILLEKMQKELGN
row,Structure (SMILES),% Inhibition @ 10 uM [%]
1,CCOC(=O)C1CCCN(C/C(C)=C/c2ccccc2)C1 (centres unmarked),-0.292
2,CC1=C(C(=O)OCCc2ccccc2)C(c2ccc(C)cc2)C2=C(O)CCCC2=N1 (centres unmarked),2.7
3,CC(C(=O)Nc1ccccn1)c1ccccc1 (centres unmarked),-3.97
4,O=C1C(=O)N(C2c3ccccc3Oc3ccccc32)c2ccccc21,-6.06
5,COCCNC(=O)c1cc(S(=O)(=O)N2CCCCC2)c[nH]1,5.18
6,CC(C)C[C@@H](COC(=O)NCC#N)NC(=O)OCc1ccccc1,1.7
7,Cc1[nH]c2ccccc2c1CCN1C(=O)C2CCCCC2C1=O (centres unmarked),-5.23
8,COc1cccc2c1cc1c(=O)n(CC(=O)NCCN(C)C3CCCCC3)nc(C)n12,-3.47
9,CCn1c2ccccc2c2cc(NS(=O)(=O)c3ccc(OC)cc3)ccc21,0.907
10,O=C(Nc1ccc(F)cc1)c1ccccc1Br,1.48
11,COc1ccc(CCN2C(=O)CCCC2=O)cc1OC,-1.99
12,CCc1c2c(nc3sc(C(=O)Nc4ccc(OC)cc4)c(N)c13)CC(C)(C)CC2=O,18.2
13,CCOc1ccc(-c2cc(C)n3nc(C(=O)N4CCOCC4)cc3n2)cc1,3.54
14,CN(CCCc1ccccc1)CCc1ccccn1,-7.93
15,COc1cccc(CN2CCN(C(=O)c3cc(OC)cc(OC)c3)CC2)c1,-3.37
16,COC(=O)C1=CN(C(C)c2ccccc2)C=C(C(=O)OC)C1c1cccc(OC)c1OC (centres unmarked),1.88
17,O=C(NCc1ccc(F)cc1)C(Cc1ccccc1)NS(=O)(=O)c1cccs1 (centres unmarked),-1.73
18,O=C1NC(c2cccnc2)Nc2sc3c(c21)CCCC3 (centres unmarked),-2.17
19,CCOC(=O)N1CCN(C(=O)c2cc3c(=O)oc4ccccc4c3s2)CC1,6.64
20,C=CCOc1ccc(CNCCSc2nnnn2-c2ccccc2)cc1,0.596
21,Cc1nn(-c2ccc(Br)cc2)c(O)c1/C=N/c1ccc(C(=O)O)cc1,3.65
22,O=C(O)CCS(=O)(=O)Cc1ccccc1F,1.27
23,COc1ccc(CCNCc2ccccn2)cc1OC,-2.78
24,Cc1cc(C)cc(NS(=O)(=O)c2ccc(NC(=O)c3ccc(F)cc3)cc2)c1,-2.19
25,Cc1[nH]c2ccccc2c1CN1CCN(CCO)CC1,-0.292
26,CCOC(=O)Nc1nnc(CC(C)C)s1,-4.58

row,Structure (SMILES),% Inhibition @ 10 uM [%]
1,CCc1cc(=O)oc2c3c(ccc12)OCN(c1cccnc1)C3,4.5
2,CCOc1cccc(NC(=O)c2ccccc2)c1,-1.61
3,CCOc1ccc(C(=O)CC(=O)C(=O)NCc2ccc3c(c2)OCO3)cc1,0.494
4,C=CCN1C(=O)N/C(=C/c2cccn2-c2ccc(Br)cc2)C1=O,1.27
5,Cc1cccn2c(=O)c(/C=C(\C#N)C(=O)N3CCOCC3)c(Oc3ccc(Br)cc3)nc12,-3.23
6,CCCN1CCC(NC(C)CCCC(C)(C)O)CC1 (centres unmarked),1.83
7,Cc1nc2nc(SCC(=O)NCCCN3CCOCC3)nn2c(C)c1Cc1ccccc1,2.17
8,O=c1c(O)c(-c2ccc(OCc3ccccc3)cc2)oc2ccccc12,1.12
9,CCCc1ccc(-c2nc(NC(=O)CCC(=O)O)sc2C)cc1,1.96
10,COc1cccc(CN(C(=O)c2oc3c(C)c(C)ccc3c2C)C2CCS(=O)(=O)C2)c1 (centres unmarked),1.82
11,CC(C)NCC(O)COc1c(Cl)ccc2c1OCCO2 (centres unmarked),3.65
12,Brc1ccc(N2N=C(c3ccccc3)NC2(c2ccccc2)c2ccccc2)c(Br)c1,-6.99
13,OC1CCN(CC2CC3C=CC2C3)CC1 (centres unmarked),1.62
14,O=C(Cn1ncc2c1-c1ccccc1OC2)NCc1ccccc1,1.08
15,Cc1nn(Cc2ccc(-c3nc(-c4nonc4N)no3)cc2)c(C)c1Cl,-7.55
16,COc1ccc(N2CCN(Cc3cc(Br)c(OC)cc3OC)CC2)cc1,-1.98
17,Cc1ccnc2nc(NC(=O)CN3C(=O)c4ccccc4C3=O)nn12,6.7
18,COc1ccc(CCNC(=O)Cn2nc(C(F)(F)F)c(Br)c2C)cc1OC,0.206
19,CC(NC(=O)c1nc2nc(-c3ccccc3)cc(C(F)(F)F)n2n1)c1ccccc1 (centres unmarked),4.1
20,CN1C(=O)C(=Cc2cccs2)C(=O)N(C)C1=O,2.6
21,CC(C)(C)NC(=O)CN(Cc1cccc(Cl)c1)S(=O)(=O)c1ccc(Cl)cc1,-2.19
22,CN(C)c1ccc(-c2nocc2C#N)cc1,7.42
23,CSc1nc(C(C)C)ccc1CNC(=O)CC(C)c1ccccc1 (centres unmarked),-2.5
24,CCn1nc(C)c(C2C(C#N)=C(N)OC3=C2C(=O)CCC3)c1C (centres unmarked),1.57
25,CC1CCCCC1N1CNc2c(c(=O)n(C)c(=O)n2C)C1 (centres unmarked),10.6
26,CCOC(=O)/C(C#N)=C1/C=CN(Cc2ccccc2)C=N1,-0.771

row,Structure (SMILES),% Inhibition @ 10 uM [%]
1,O=C1C(c2ccncc2)N(CCC2=CCCCC2)C(=O)CN1C1CCCCC1 (centres unmarked),-3.94
2,Cc1sc(NC(=O)c2cccc(C(F)(F)F)c2)c(C(=O)OC(C)C)c1C,2.8
3,Cc1cc(O)nc(SCC(=O)Nc2c(Cl)cc(Cl)cc2Cl)n1,-5.01
4,CS(=O)(=O)N(CC(=O)NCCc1ccccc1)c1ccc(F)cc1,-0.598
5,COc1ccc(N(Cc2ccc(F)cc2)C(=O)c2ccccc2[N+](=O)[O-])cc1,-3.62
6,CC(C)CNC(=O)c1ccccc1N(C)S(C)(=O)=O,-1.44
7,O=C(COc1ccccc1)N1CCc2ccccc21,2.42
8,Cc1ccc(C2=NC3(CCN(C(=O)c4ccccc4C)CC3)NC2=O)cc1C,2.01
9,COc1ccc(N2CCOCC2)cc1,3.74
10,CC(C)Oc1ccc(C(CC(=O)O)N2C(=O)c3ccccc3C2=O)cc1 (centres unmarked),-3.07
11,CC(NC(=O)Cc1ccccc1)c1ccc2c(c1)OCCO2 (centres unmarked),-0.622
12,Cc1n[nH]c(C)c1CCCOc1ccccc1F,-2.18
13,CCNS(=O)(=O)c1cccc2c1C(=O)c1ccccc1C2=O,17.1
14,Cc1cc2nc(O)c(O)nc2cc1S(=O)(=O)N1CCCC(C)C1 (centres unmarked),6.16
15,CC1CC2(CCCC2)N(C(=O)c2ccccc2)Cc2ccccc21 (centres unmarked),0.0538
16,N#Cc1ccc(-c2ccc(OCC(N)=O)cc2)cc1,0.324
17,Cc1cc(=O)n2nc(N(C)CC(=O)NCc3ccccc3)sc2n1,-2
18,O=C(COc1ccccc1)Nc1nn2c(-c3ccco3)nnc2s1,4.46
19,Cn1c(C(=O)N2CCc3ccccc3C2)cc2sccc21,-3.08
20,Cc1ccc(C(=O)CCC(=O)NCc2ccc(Cl)cc2)cc1,0.238
21,O=C(Nc1ccc(C(F)(F)F)cc1)c1cc(F)c(Cl)nc1Cl,1.93
22,CCN(CC)C(C(=O)NC1CCCC1)c1ccc(OC)cc1 (centres unmarked),2.84
23,COCCCN(Cc1ccco1)C(=O)Cn1ncc2c1-c1cc(C)ccc1OC2,-3.5
24,O=C(c1ccccc1)c1ccc2nc(NCCCO)c3nncn3c2c1,-9.3
25,Cc1cccc(C)c1NC(=O)c1ccccc1NC(=O)c1ccccc1,3.93
26,Cc1nc2ccsc2c(=O)n1-c1ccccc1Cl,2.25

row,Structure (SMILES),% Inhibition @ 10 uM [%]
1,CC1=C(C(=O)OCC2CCCO2)C(c2ccc(Cl)cc2Cl)CC(=O)N1 (centres unmarked),2.47
2,COc1ccccc1NS(=O)(=O)c1ccc(Cl)cc1,-8.13
3,Cc1ccsc1CN(C(=O)c1oc2ccc(Cl)cc2c1C)C1CCS(=O)(=O)C1 (centres unmarked),-2.85
4,CN1CCN(C2CC(=O)N(c3ccc4c(c3)OCCO4)C2=O)CC1 (centres unmarked),-3.37
5,OC(COc1ccc(C23CC4CC(CC(C4)C2)C3)cc1)CN1CCCCC1 (centres unmarked),-0.294
6,COC(=O)c1ccc(C(=O)O/N=C(\N)c2ccc(C)n2C)cc1,0.9
7,COCC(C)NC(=O)CCc1ccccc1 (centres unmarked),-18.8
8,C=CCOc1ccccc1/C=C1/SC(=O)N(CN2CCOCC2)C1=O,-3.63
9,CCN(CCC1=C(C)CCCC1(C)C)CCN(C)C,-5.31
10,CCOC(=O)c1cc2c(n(-c3ccccc3)c1=O)CC(C)(C)CC2=O,-0.13
11,CCOC(=O)N1CCC(N2C(=O)c3ccc(C(=O)NC4CCCC4)cc3C2=O)CC1,-1.03
12,Nc1nnc(SCC(=O)n2c3c(c4c2CCCC4)CCCC3)s1,0.67
13,O=C(NCCc1ccccc1)c1ccc(CS(=O)(=O)c2cccc(C(F)(F)F)c2)o1,2.14
14,O=C(c1cccc(F)c1)N1CCCN(C(=O)c2cccc(F)c2)CC1,-4.7
15,NC(=O)C1(N2CCCCC2)CCN(c2ccc3nnc(-c4ccccc4)n3n2)CC1,-1.37
16,Cn1c(-c2ccc(F)cc2)cnc1NCc1cc(Cl)ccc1O,-2.91
17,OCCn1c(SCCOc2ccccc2)nc2ccccc21,-2.72
18,COc1ccc(-c2nc3cc(C)ccn3c2NC(=O)CC(C)C)cc1,4.77
19,CS(=O)(=O)N(Cc1ccccc1Cl)c1ccc(C(=O)NC2CC3CCC2C3)cc1 (centres unmarked),4.57
20,CC(Cc1c[nH]c2ccccc12)NC(N)=O (centres unmarked),-0.128
21,C=CCN1C(=O)S/C(=C\c2ccc(CC)s2)C1=O,-3.32
22,FC(F)(F)c1cccc(N2CCN(Cc3cc(Br)cs3)CC2)c1,-5.41
23,CC12C=CC(O1)C1C(=O)N(c3cccc4ccccc34)C(=O)C12 (centres unmarked),0.76
24,COc1cccc(CN2CCN(Cc3ccc(OC)c(Br)c3)CC2)c1,-1.8
25,CC1=[N+]([O-])C(C)(C)C(c2ccc(C)o2)=[N+]1[O-],-3.41
26,N#CC(NC(=O)C(CC(=O)N1CCOCC1)CS(=O)(=O)Cc1ccccc1)c1cccs1 (centres unmarked),-1.83
